Test results published in patent publication US5030629A, “Compositions and method comprising heterocyclic compounds containing two heteroatoms as membrane penetration enhancers” (priority 1989, dated 1991).

Text: Sci. 75, 1094 (1986). […] All formulations were studied in triplicate.

SMILES | permeation for Isosorbide Dinitrate as compared to control
CCCCCCCCCCCC1=NCCN1CCC [Example 34 B, 1-Propyl-2-undecyl-2-imidazoline] | superior permeation
CCCCCCCCCCCC1=NCCN1C [Example 34 A, 1-Methyl-2-undecyl-2-imidazoline] | superior permeation
CCCCCCCCCCCC1=NCCN1CCOCC [Example 27, 1-(2-Ethoxyethyl)-2-undecyl-2-imidazoline] | superior permeation

More lines, now with the values ahead:

permeation for Isosorbide Dinitrate as compared to control | SMILES
superior permeation | CCCCCCCCCCCC1=NC(C)(C)CN1 [Example 30, 4,4-Dimethyl-2-undecyl-2-imidazoline]
superior permeation | CCCCCCCCCCCC1=NCCN1CCO [Example 25, 1-(2-Hydroxyethyl)-2-undecyl-2-imidazoline]
